Experimental data from the supplement of paper PMC11417369.
The other results are listed elsewhere or left out.

System: PfAP2-HC AP2 domain (GST-tagged)
Assay: gcPBM binding intensity (ln(normalized median fluorescence intensity)); higher = stronger DNA binding
How it was run: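 An Agilent 4 × 180k array carrying primer-extended double-stranded 36-bp intergenic genomic probes and negative controls received GST-tagged P. falciparum DNA-binding domains expressed in E. coli, about 25 μg on average, for 1 h. The binding buffer contained 1× PBS, 1% milk, 0.2 mg/ml BSA, 0.5% salmon testes DNA and 0.03% Triton X-100. Binding intensity is the top Masliner-normalised natural-log median intensity across replicate spots of either probe orientation, read after Alexa488 anti-GST antibody staining and a 488 nm scan.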

| Sequence | gcPBM binding intensity (ln) |
| --- | --- |
| ATATATATTATGTGTGTGCACTTTTGTTATTATTAT | 10.2 |
| ATAACTAAATGATATTGTACAAAATAATTATATATT [XGTACX_site1331] | 9.73 |
| TTAAATTGAATTAGTTAACACACAACTTTTATTTCA [CACACA_site8921] | 9.65 |
| TCTTCATACGACTAAAAAACATTAGACTGATAAAAA [CACACA_negctrl_site628] | 9.13 |
| TATTACACATATTATACACACATATATTATATATAT [CACACA_site4951] | 10.2 |
| TAACATATTTTTAATACACACTTAAAAAAGTACTTA [CACACA_site4875] | 9.37 |
| TATAGCATAAATATGTGTACATATTTATATGATATT [XGTACX_site6333] | 9.81 |
| TATATATAATATTATACACACATATATGCATAATAT [CACACA_site54] | 9.86 |
| TATTTATTTATATAAACACACATAAATATAAATATA [CACACA_site6653] | 9.45 |
| ATATATATTTAAAAAAGTACAGAAGAAAATAACCCA [XGTACX_site642] | 9.86 |
| TTGTGTTTTACATATACATGCAAATTTTTTTTTTTA [TGCATGCA_site303] | 9.39 |
| TTTCTTTTTTCATTTACACACAATAATATAAGAATA [CACACA_site3164] | 9.52 |
| TACACAAATATATATATATATATATATATATATATA [XGTACX_negctrl_site305] | 10.2 |
| AGTTTAGAATTTAATACACACAAAAAAAAAAAATTA [CACACA_site7698] | 9.8 |
| AACGTTCAATTTAAATGTACAAATGTATTTAAATAT [XGTACX_site315] | 9.61 |
| AAATACAAAATTGTTACACACATATTAAGTATGACA [CACACA_site4421] | 9.85 |
| AGCTCATGCAGGTGTACACAAAAAGAAAAAAAATAA [CACACA_site4828] | 9.73 |
| AAAACAAATATATTAACACACAAACATATAAACAAA [CACACA_site6052] | 10.4 |
| ATAAATAATGTTGACACACACAATAATCTTATTATG [CACACA_site3593] | 10 |

| Sequence | gcPBM binding intensity (ln) |
| --- | --- |
| ATGTCCTCAATGTTTACACACTCTTTTATATAAGTT [CACACA_site1460] | 10 |
| CCCCATATAATGAACACACACACTCCTCATAATTAA [CACACA_site628] | 10.4 |
| TGCTTATATATACGTGCACACATATATATAAGATAT [CACACA_site8516] | 9.75 |
| CTGGAGGATGAAAAAAGTACAAAAGGAGGAAATGTA [XGTACX_site8846] | 9.44 |
| AATATATGGTATAATTGTACAAAAAAAAAAAAAAAA [XGTACX_site1476] | 9.36 |
| CTTTAACCTTTTTATTGTACTTTTAATATTTTAAAA [XGTACX_site4457] | 9.7 |
| TCTTTAATGAACAAATGTACAAGAACAATACCCGCA [XGTACX_site2047] | 9.64 |
| GTGAAATGGAAAAAAAGTACAGATTACATAAGTATT [XGTACX_site6355] | 9.56 |
| TATTAATTTATATCAACACACAAAATCAATATACTT [CACACA_site1757] | 9.74 |
| TTCTATATTTTAGCTGATAATATTATGAGCTTCACT [XGTACX_negctrl_site427] | 9.57 |
| AACATAAATATATATAGTACATATATATATATTCAA [XGTACX_site7287] | 9.63 |
| AAGGAATAATATAAAACACACACATAAATATAAATA [CACACA_site9115] | 11.4 |
| ATATAGATCAGACACACACACATGTTTTAAAACTAT [CACACA_site6186] | 10.9 |
| CGAAATATTATGTACGCACACACATTTTTAATATAT [CACACA_site3852] | 10.1 |
| TTTTGGAATTTTAGCTGTACTTTTCCTATTTTGTAT [XGTACX_site7679] | 9.99 |
| TTCTTTTCTTCTACATGTACAAATATTATATATATA [XGTACX_site2996] | 9.97 |
| TGAAACCATAAAGAATGTACACAGCGGTATAAGTTA [XGTACX_site674] | 9.8 |
| TTAATATATTTAAATATATATAAAATATATAATATG [CACACA_negctrl_site880] | 9.52 |
| TTTTAAATAATACATACATGCATATATACACATATA [TGCATGCA_site8] | 9.6 |

| Sequence | gcPBM binding intensity (ln) |
| --- | --- |
| AATAAAATAAGAAGCACACAAATATTATATATAAAA [CACACA_site3980] | 9.93 |
| TCTTATTTAAAAATAGCACACATTATGTATATATAT [CACACA_site2822] | 9.84 |
| AGCTCGGAAAAATTAGCATGCAAAAAAAAAAAAAAA [TGCATGCA_site658] | 9.34 |
| TATATAACTGTCTTCACACACACATATAAATAAATA [CACACA_site7317] | 10.2 |
| TATTTCACAACTTGTCGTACATTAATTGTATTATTT [XGTACX_site997] | 10.1 |
| ATTATTATTAATAGTACACACTATGGCATTTCAATA [CACACA_site5388] | 9.69 |
| TTAGGTGTATATAATTGTACATTTTGGAAATTATAC [XGTACX_site5492] | 9.46 |
| ATCTTTCATCTACCAAGTACAAATTACTTTTTTTTT [XGTACX_site7001] | 9.9 |
| TTTTGTTATTATAAATAGTAACATTTGTGAATATAT [TGCATGCA_negctrl_site132] | 9.42 |
| AAGACATTTTTTTGTTGTACGTCTTCATTTATTGTA [XGTACX_site2890] | 9.69 |
| AACAAATAAAAAAAAATAAAAATAAAAATAAAAAAA [XGTACX_negctrl_site451] | 9.57 |
| TTTAAAATTATAAGGATTAAAAAAAAAAAAAATAAA [CACACA_negctrl_site114] | 9.4 |
| AAGAATTATATTAATAGTACATATATATTAATTTAT [XGTACX_site5713] | 9.52 |
| TTATTTATGAAGTATACACACAATATAGATTTATAT [CACACA_site6703] | 9.64 |
| AATATTACAATTTGGTGTACAGGTGCACATGCCTCA [XGTACX_site1730] | 9.61 |
| TCTACAATTTTAATTACACACTATAAAAAAGAAAGA [CACACA_site5624] | 9.56 |
| TAGCTTATAAGATATGCACACACAACACTTACAAAA [CACACA_site8174] | 10.8 |
| ATAATGAAAACAAGCACACATACATAAAATAAAATA [CACACA_site3257] | 10.5 |
| ATGGAAGGATAATAAAAACCTTTACCTTTCTGTTTA [GTGCAC_negctrl_site380] | 9.45 |
